Test results published in PubChem BioAssay AID504832 (National Center for Advancing Translational Sciences (NCATS), 2011).
Hit rate of the full screen: of about 310,000 compounds, about 18,000 (5.8%) were called active. The inconclusive results got no clear call from the source; some entries with a clear call stand among them for comparison. Calls follow the shape of the dose curve; as a rule, active = well fitted inhibition curve with a large enough effect; inconclusive = small, poorly fitted or top-dose-only effect, or another doubt; inactive = no such curve, though single readings can be large or run the other way. No potency is given beside an inconclusive call; the fits are too rough.
Potency is read from the fitted curve at half-maximal effect; tags tell the direction and shape of the fitted curve.

Assay: Primary qHTS for delayed death inhibitors of the malarial parasite plastid, 48 hour incubation
Conditions: P. falciparum luciferase growth in erythrocytes; series mostly up to 28.7 µM
How it was run: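 Luminescence readout; reporter = integrated firefly luciferase in P. falciparum. RBC culture at 2% hematocrit, 0.1% parasitemia final, 37 C/5% CO2; decreased signal taken as growth inhibition.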
With O=C(NCCCN1CCOCC1)C(=O)NCC1OCCN1S(=O)(=O)c1ccc(Br)cc1 (stereo unspecified) the Potency was inconclusive [inhibitor, partial curve, poor fit]. With COC(=O)C(C)NC(=O)CNS(=O)(=O)c1ccc(F)cc1 (stereo unspecified) the Potency was inconclusive [inhibitor, full curve, poor fit]. For Cc1ccnc(NS(=O)(=O)c2ccc(NS(=O)(=O)c3ccc([N+](=O)[O-])cc3)cc2)n1, the Potency was “inactive”. For CCOC(=O)c1sc(=NC(=O)c2ccc(Br)cc2)n(C)c1C, the Potency was “inactive”. For Cc1ccc2c(c1)nnn2C1CCN(C(=O)C23CC4CC(CC(C4)C2)C3)CC1, the Potency was inconclusive [inhibitor, partial curve]. For COc1ccc(OCC(O)CNC(=O)c2ccccc2C(=O)O)cc1 (stereo unspecified), the Potency was “inactive”. For O=C(CSc1nc(Nc2ccccc2)nc(N2CCOCC2)n1)Nc1cccc([N+](=O)[O-])c1, the Potency was inconclusive [inhibitor, single point]. In the case of COc1ccc(NC(=O)CSc2ccc3nnc(-c4ccccn4)n3n2)cc1OC, the Potency is reported as inconclusive [inhibitor, single point]. With O=C(COC(=O)C1CCC(=O)N1)Nc1ccc(Cl)cc1Cl (stereo unspecified) the Potency was “inactive”. For COC(=O)C1=C(O)/C(=C\c2ccc(OCC(=O)Nc3ccccc3OC)cc2)N=C1C, the Potency was “inactive”. In the case of Cc1ccc(S(=O)(=O)N(C)c2ccc(C(=O)Nc3cccc(C)n3)cc2)cc1, the Potency is reported as “inactive”. For CCOC(=O)c1nnn(-c2nonc2N)c1-c1ccc(OC)cc1, the Potency was active: 2.08 µM. For Cc1ccc(OCC(=O)NCc2cccs2)c([N+](=O)[O-])n1, the Potency was “inactive”. For CC(=O)OC(C)(C)/C=C/C(=O)C(C)(O)C1[C@H](O)C[C@@]2(C)C3CC=C4C(CC[C@@H](O)C4(C)C)[C@]3(CO)C(=O)C[C@]12C (stereo partly specified), the Potency was active: 10.4 µM. With CCOc1ccc(C(=O)CCC(=O)NC2=NCCS2)cc1 the Potency was “inactive”. For COC(=O)C1=C(C)N(c2ccc(Cl)cc2)/C(=C/c2cccs2)C1=O, the Potency was inconclusive [inhibitor, partial curve, poor fit]. In the case of CN(C)Cc1nc2c(c(=O)[nH]1)C1(CCCCC1)Cc1ccccc1-2, the Potency is reported as inconclusive [inhibitor, single point]. In the case of COc1ccc(C(CNC(=O)c2cccc(S(=O)(=O)N3CCCCC3)c2)N2CCCC2)cc1 (stereo unspecified), the Potency is reported as inconclusive [inhibitor, single point]. With CCOC(=O)c1nnn2c1nc(N1CCN(c3ccccc3)CC1)c1ccccc12 the Potency was active: 5.22 µM. In the case of Cc1onc(-c2c(Cl)cccc2Cl)c1C(=O)N/N=C(\N)COc1ccc(Cl)cc1, the Potency is reported as active: 2.33 µM. For COc1ccccc1NC(=S)NC(=O)Cc1ccc(Cl)cc1, the Potency was inconclusive [inhibitor, full curve, poor fit]. In the case of CCN(c1ccccc1)S(=O)(=O)c1nnc(NC(=O)C(C)(C)C)s1, the Potency is reported as inconclusive [inhibitor, full curve, poor fit]. In the case of Cc1ccc(CN2CCSc3ccc(C(=O)NCCCN4CCN(C)CC4)cc32)cc1, the Potency is reported as active: 14.7 µM. For COc1cccc(C(=O)Nc2cc(-c3cn4cccnc4n3)ccc2C)c1, the Potency was “inactive”. In the case of CCOCCCNC(=S)N(Cc1ccco1)Cc1cc2cc3c(cc2[nH]c1=O)OCCO3, the Potency is reported as inconclusive [inhibitor, single point]. In the case of C/C(=N\NC(=O)c1cc(C)oc1C)c1ccc(C)c([N+](=O)[O-])c1, the Potency is reported as inconclusive [inhibitor, single point]. In the case of CCOc1ccc(-c2nnc(SCC(=O)O)n2Cc2ccccc2)cc1, the Potency is reported as “inactive”. With Cc1cc(N)c2cc(NC(=O)/C=C/c3ccccc3Cl)ccc2n1 the Potency was active: 0.465 µM. For CCOC(=O)c1cc2c(ccn2-c2ccc(F)cc2)n1CC(=O)NC(C)(C)C, the Potency was inconclusive [inhibitor, single point]. For CCc1ccccc1NC(=O)C1CCN(C(=O)N2CCOc3ccccc32)CC1, the Potency was “inactive”. In the case of Cc1csc(SCc2nc3scc(-c4ccccc4)c3c(=O)[nH]2)n1, the Potency is reported as inconclusive [inhibitor, single point]. For O=C(NCC1CCCO1)c1ccc([N+](=O)[O-])o1 (stereo unspecified), the Potency was inconclusive [inhibitor, partial curve, poor fit]. For COCCN(C(=O)CSc1nnc(-c2ccc(C)c(C)c2)o1)c1c(N)n(CC(C)C)c(=O)[nH]c1=O, the Potency was inconclusive [inhibitor, partial curve, poor fit]. With Cc1cccc(C(=O)Nc2ccccc2C(=O)OCC(=O)Nc2ccc(C#N)cc2)c1 the Potency was “inactive”. For Cc1nnc(SCC(=O)Nc2ncc(Cc3ccc(F)cc3)s2)n1N, the Potency was “inactive”. In the case of COC(=O)c1ccc(CN2CCCCC2)cc1, the Potency is reported as “inactive”. For COC(=O)c1cc(OC)c(OC)cc1NCC(=O)Nc1ccc(OC)c(OC)c1, the Potency was inconclusive [inhibitor, single point]. With Cc1nc(-c2ccc(Cl)cc2)sc1C1(C)CC(c2ccc(OC(F)(F)F)cc2)=NO1 (stereo unspecified) the Potency was “inactive”. For CCN1CCc2c(OCC(=O)N3CCCCC3)cccc2C1=O, the Potency was “inactive”. In the case of O=C(CSc1ncc(C(F)(F)F)cc1Cl)N1CCN(S(=O)(=O)c2ccc(Cl)cc2)CC1, the Potency is reported as inconclusive [inhibitor, single point]. With CC(=O)NCCc1nc2ccccc2n1Cc1ccc(Cl)cc1 the Potency was inconclusive [inhibitor, single point]. In the case of COc1ccc(/C(N)=N/OC(=O)C2CCCCC2)cc1, the Potency is reported as “inactive”. In the case of O=C(NCc1ccccc1)C1=C[C@@H](c2coc3ccccc3c2=O)C[C@@H](OCCCCO)O1, the Potency is reported as inconclusive [inhibitor, partial curve, poor fit]. With C/C(=N\NC(=O)COc1ccccc1)c1cccs1 the Potency was “inactive”. With CCOC(=O)Cc1csc(SCC(=O)c2c(N)n(CC(C)C)c(=O)n(C)c2=O)n1 the Potency was inconclusive [inhibitor, single point]. With COc1ccc(-c2cn3ccccc3n2)cc1[N+](=O)[O-] the Potency was “inactive”. For Cc1cccc(-c2nnn3c2nc(NCCc2ccc(S(N)(=O)=O)cc2)c2ccccc23)c1, the Potency was inconclusive [inhibitor, full curve, poor fit]. In the case of COc1ccc(-c2noc(-c3ccccc3-c3ccccc3)n2)cc1OC, the Potency is reported as inconclusive [inhibitor, single point]. With CCCn1c(C2CCCN2c2nc(-c3cccc(Br)c3)cs2)nc2cc(Cl)c(Cl)cc21 (stereo unspecified) the Potency was active: 11.7 µM. In the case of COc1ccc(N(CCCN2C(=O)c3cccc4cccc(c34)C2=O)C(=O)c2ccncc2)cc1, the Potency is reported as active: 2.33 µM. For O=C(N/N=C/c1ccccn1)c1cccc([N+](=O)[O-])c1, the Potency was inconclusive [inhibitor, partial curve, poor fit]. In the case of CCCCC(=O)NC(c1ccc(OC)c(OC)c1)c1c(O)ccc2ccccc12 (stereo unspecified), the Potency is reported as inconclusive [inhibitor, single point]. In the case of Cc1ccc(C)n1-c1ccccc1N1CCCCC1, the Potency is reported as inconclusive [inhibitor, partial curve, poor fit]. For CC1CCN(C(=O)c2ccc(COc3ccccc3Cl)o2)CC1, the Potency was inconclusive [inhibitor, partial curve, poor fit]. With CN1c2ccccc2-c2nc3ccccc3n2C1c1ccccn1 (stereo unspecified) the Potency was active: 9.28 µM. In the case of N#CCCN(C(=O)COC(=O)C1=NNC(=O)CC1)c1ccccc1, the Potency is reported as inconclusive [inhibitor, partial curve, poor fit]. For COCCNC(=O)C1CC2Cn3c(nc4ccccc43)C2N1C (stereo unspecified), the Potency was “inactive”. For COc1ccc(N(CC(=O)N2CCCC2)S(C)(=O)=O)cc1, the Potency was “inactive”. In the case of CCS(=O)(=O)c1nc(S(=O)(=O)c2ccc(Cl)cc2)c(N2CCCC2)s1, the Potency is reported as inconclusive [inhibitor, single point]. With CCN(CC)CCN(Cc1cc2ccc(C)cc2[nH]c1=O)C(=O)NC1CCCCC1 the Potency was inconclusive [inhibitor, single point]. With COc1ccc(N2CCN(C(=O)c3ccc(NS(=O)(=O)c4ccccc4)cc3)CC2)cc1 the Potency was inconclusive [inhibitor, partial curve, poor fit]. In the case of COc1ccc(N(CC(=O)NCCC2=CCCCC2)S(=O)(=O)c2ccccc2)c(OC)c1, the Potency is reported as inconclusive [inhibitor, partial curve]. With Cc1cccc(NC(=O)CSCC(=O)NCc2ccco2)c1 the Potency was “inactive”. For CC(C)(C)c1ccccc1OCC(=O)Nc1ccccc1C(=O)NCc1cccnc1, the Potency was inconclusive [inhibitor, partial curve]. With Cc1cc(NCCCN(C)C)n2nc(-c3cccs3)cc2n1 the Potency was inconclusive [inhibitor, single point]. In the case of COc1ccc(C(=O)NCC2OCCc3ccccc32)c(O)c1 (stereo unspecified), the Potency is reported as inconclusive [inhibitor, single point]. For CCOC(=O)N1CCC(N2C(=O)c3ccccc3C2Nc2cc(OC)c(OC)c(OC)c2)CC1 (stereo unspecified), the Potency was inconclusive [inhibitor, partial curve]. In the case of Cc1ccc(C)c(NC(=O)COC(=O)c2c(C)nn(-c3ccccc3)c2C)c1, the Potency is reported as inconclusive [inhibitor, single point]. For Cc1cc(C(=O)OCC(=O)N2CC(C)CC(C)C2)c(C)o1 (stereo unspecified), the Potency was “inactive”. In the case of Cc1cc2c(cc1C)[n+](C)cn2CC(O)COCC1CC=CCC1 (stereo unspecified), the Potency is reported as active: 2.94 µM. For COc1ccc(C)cc1NC(=O)CNC(c1ccccc1)c1ccccc1, the Potency was active: 7.38 µM.
